pIC50: −log10 of the molar value. A lower IC50 marks a more sensitive line; a fit beyond the top or the lowest dose is shown as a bound at that dose. For AUC the same curve is integrated over the 256-fold range of doses and scaled to a fraction; the more sensitive the line, the further below 1. For some of these results: The top dose, if marked as inferred, is not printed in the source and was worked back from the curve model. For some of these results: Drugs with an entry number were screened twice under separate entries, and the two screens often disagree.
Key:
Experiment in all cases: Viability of human cancer cell lines after 72 h of drug (GDSC screen)
LFM-A13 = compound: C/C(O)=C(\C#N)C(=O)Nc1cc(Br)ccc1Br [LFM-A13]; details: top dose 16 µM; top dose inferred
Protocol: (§1)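 Human cancer cell lines in 384-well plates, medium with 10% serum, drug for 72 h over a 256-fold dose range (nine 2-fold or five 4-fold steps up to the top dose). Adherent lines were fixed and stained with the nucleic acid dye Syto60, suspension lines read with resazurin; signal relative to control wells, capped at 0 and 100%. One two-parameter sigmoid per drug and line, fitted in a mixed model over all curves with the slope shared within a line.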

AUY922 = compound: CCNC(=O)c1noc(-c2cc(C(C)C)c(O)cc2O)c1-c1ccc(CN2CCOCC2)cc1 [AUY922]; details: top dose 0.256 µM; top dose inferred
Protocol: as §1

Bicalutamide = compound: CC(O)(CS(=O)(=O)c1ccc(F)cc1)C(=O)Nc1ccc(C#N)c(C(F)(F)F)c1 [Bicalutamide]; details: top dose inferred
Protocol: as §1

Nilotinib = compound: Cc1cn(-c2cc(NC(=O)c3ccc(C)c(Nc4nccc(-c5cccnc5)n4)c3)cc(C(F)(F)F)c2)cn1 [Nilotinib]; details: top dose 2 µM
Protocol: as §1

TW-37 = compound: CC(C)c1ccccc1Cc1cc(C(=O)Nc2ccc(S(=O)(=O)c3ccccc3C(C)(C)C)cc2)c(O)c(O)c1O [TW-37]; details: top dose 5 µM
Protocol: as §1

MP470 = compound: S=C(NCc1ccc2c(c1)OCO2)N1CCN(c2ncnc3c2oc2ccccc23)CC1 [MP470]; details: top dose 20 µM; top dose inferred
Protocol: as §1

KIN001-270 = compound: Cc1ccc(Nc2cc(-c3cccc(N4C(=O)c5ccccc5C4=O)c3)ncn2)cc1NS(C)(=O)=O [KIN001-270]; details: top dose 20 µM; top dose inferred
Protocol: as §1

T0901317 = compound: O=S(=O)(c1ccccc1)N(CC(F)(F)F)c1ccc(C(O)(C(F)(F)F)C(F)(F)F)cc1 [T0901317]; details: top dose 10.24 µM; top dose inferred
Protocol: as §1

Gemcitabine = compound: Nc1ccn([C@@H]2O[C@H](CO)[C@@H](O)C2(F)F)c(=O)n1 [Gemcitabine]; details: top dose 1.024 µM
Protocol: as §1

[1] = top dose 1.024 µM, screen: GDSC drug entry 150
[2] = top dose 10 µM, screen: GDSC drug entry 1502

| Cell Line | AUC (LFM-A13) | pIC50 (LFM-A13) | AUC (AUY922) | pIC50 (AUY922) | AUC (Bicalutamide; [1]) | pIC50 (Bicalutamide; [1]) | AUC (Bicalutamide; [2]) | pIC50 (Bicalutamide; [2]) | AUC (Nilotinib) | pIC50 (Nilotinib) | AUC (TW-37) | AUC (MP470) | pIC50 (MP470) | AUC (KIN001-270) | pIC50 (KIN001-270) | AUC (T0901317) | pIC50 (T0901317) | AUC (Gemcitabine) | pIC50 (Gemcitabine) | pIC50 (TW-37) |
| --- | --- | --- | --- | --- | --- | --- | --- | --- | --- | --- | --- | --- | --- | --- | --- | --- | --- | --- | --- | --- |
| SK-MEL-24 (melanoma, adherent) | 0.947 | < 4.80 | 0.571 | 7.59 | 0.982 | < 5.99 | 0.939 | < 5.00 | 0.98 | < 5.70 | 0.54 | 0.983 | < 4.70 | 0.961 | < 4.70 | 0.982 | < 4.99 | 0.976 | < 5.99 | – |
| SK-MEL-30 (melanoma, adherent) | 0.975 | < 4.80 | 0.571 | 7.60 | 0.986 | < 5.99 | 0.983 | < 5.00 | 0.983 | < 5.70 | 0.254 | 0.966 | < 4.70 | 0.984 | < 4.70 | 0.986 | < 4.99 | 0.128 | > 8.40 | 7.23 |
| SK-N-AS (neuroblastoma, adherent) | 0.958 | < 4.80 | 0.823 | 6.74 | 0.983 | < 5.99 | – | – | 0.972 | < 5.70 | 0.474 | 0.931 | < 4.70 | 0.98 | < 4.70 | 0.965 | < 4.99 | 0.892 | < 5.99 | 6.58 |
| SK-N-SH (neuroblastoma, adherent) | 0.968 | < 4.80 | 0.477 | 7.86 | 0.987 | < 5.99 | 0.986 | < 5.00 | 0.973 | < 5.70 | 0.399 | 0.945 | < 4.70 | 0.977 | < 4.70 | 0.984 | < 4.99 | 0.222 | 8.00 | 6.78 |
| SK-OV-3 (ovary, adherent) | 0.935 | < 4.80 | 0.384 | 8.15 | 0.979 | < 5.99 | 0.95 | < 5.00 | 0.981 | < 5.70 | 0.558 | 0.96 | < 4.70 | 0.964 | < 4.70 | 0.971 | < 4.99 | 0.407 | 7.48 | 6.33 |
| SKG-IIIa (cervix, adherent) | 0.972 | < 4.80 | 0.698 | 7.15 | 0.98 | < 5.99 | 0.95 | < 5.00 | 0.983 | < 5.70 | 0.591 | 0.917 | < 4.70 | 0.982 | < 4.70 | 0.982 | < 4.99 | 0.715 | 6.49 | 6.22 |
| SKN (uterus, adherent) | 0.982 | < 4.80 | 0.675 | 7.26 | 0.975 | < 5.99 | 0.966 | < 5.00 | 0.86 | < 5.70 | 0.411 | 0.81 | 4.87 | 0.936 | < 4.70 | 0.966 | < 4.99 | 0.578 | 6.96 | 6.77 |
| SNG-M (endometrium, adherent) | 0.967 | < 4.80 | 0.351 | 8.20 | 0.979 | < 5.99 | 0.983 | < 5.00 | 0.96 | < 5.70 | 0.03 | 0.833 | 4.90 | 0.924 | < 4.70 | 0.954 | < 4.99 | 0.043 | > 8.40 | > 7.71 |
| SNU-182 (liver, adherent) | 0.977 | < 4.80 | 0.645 | 7.39 | 0.986 | < 5.99 | 0.979 | < 5.00 | 0.967 | < 5.70 | 0.482 | 0.952 | < 4.70 | 0.98 | < 4.70 | 0.976 | < 4.99 | 0.282 | 7.82 | 6.56 |
| SNU-449 (liver, adherent) | 0.798 | 5.07 | 0.532 | 7.70 | 0.981 | < 5.99 | 0.977 | < 5.00 | 0.986 | < 5.70 | 0.537 | 0.657 | 5.45 | 0.949 | < 4.70 | 0.986 | < 4.99 | 0.322 | 7.71 | 6.40 |
| SU8686 (pancreas, adherent) | 0.973 | < 4.80 | 0.604 | 7.49 | 0.985 | < 5.99 | 0.983 | < 5.00 | 0.984 | < 5.70 | 0.649 | 0.953 | < 4.70 | 0.979 | < 4.70 | 0.984 | < 4.99 | 0.453 | 7.33 | 6.07 |
| SU-DHL-5 (B-cell lymphoma, suspension) | 0.992 | < 4.80 | 0.434 | 7.96 | 0.994 | < 5.99 | 0.87 | 5.25 | 0.954 | < 5.70 | 0.373 | 0.551 | 5.78 | 0.894 | 4.87 | 0.985 | < 4.99 | 0.009 | > 8.40 | 6.82 |
| SUIT-2 (pancreas, adherent) | 0.952 | < 4.80 | 0.878 | < 6.59 | 0.985 | < 5.99 | 0.981 | < 5.00 | 0.984 | < 5.70 | 0.74 | 0.956 | < 4.70 | 0.985 | < 4.70 | 0.959 | < 4.99 | 0.19 | 8.15 | 5.80 |
| SW48 (large intestine, adherent) | 0.986 | < 4.80 | 0.547 | 7.67 | 0.975 | < 5.99 | 0.985 | < 5.00 | 0.985 | < 5.70 | 0.468 | 0.939 | < 4.70 | 0.973 | < 4.70 | 0.979 | < 4.99 | 0.741 | 6.51 | 6.59 |

From the supplement of paper PMC4967469
